For nine molecules, binding results are on record in article PMC8527048.

These are yes or no findings as the source states them, for the method shown. Binding seen in cells or lysates may run through a third protein. Some entries that bind do so weakly or less than the wild type. Where a sequence is shown, tags or fusion partners need not be part of it.

Assay [1] has as its target T1, GST-5-LO (UniProt P48999).
T1 sequence: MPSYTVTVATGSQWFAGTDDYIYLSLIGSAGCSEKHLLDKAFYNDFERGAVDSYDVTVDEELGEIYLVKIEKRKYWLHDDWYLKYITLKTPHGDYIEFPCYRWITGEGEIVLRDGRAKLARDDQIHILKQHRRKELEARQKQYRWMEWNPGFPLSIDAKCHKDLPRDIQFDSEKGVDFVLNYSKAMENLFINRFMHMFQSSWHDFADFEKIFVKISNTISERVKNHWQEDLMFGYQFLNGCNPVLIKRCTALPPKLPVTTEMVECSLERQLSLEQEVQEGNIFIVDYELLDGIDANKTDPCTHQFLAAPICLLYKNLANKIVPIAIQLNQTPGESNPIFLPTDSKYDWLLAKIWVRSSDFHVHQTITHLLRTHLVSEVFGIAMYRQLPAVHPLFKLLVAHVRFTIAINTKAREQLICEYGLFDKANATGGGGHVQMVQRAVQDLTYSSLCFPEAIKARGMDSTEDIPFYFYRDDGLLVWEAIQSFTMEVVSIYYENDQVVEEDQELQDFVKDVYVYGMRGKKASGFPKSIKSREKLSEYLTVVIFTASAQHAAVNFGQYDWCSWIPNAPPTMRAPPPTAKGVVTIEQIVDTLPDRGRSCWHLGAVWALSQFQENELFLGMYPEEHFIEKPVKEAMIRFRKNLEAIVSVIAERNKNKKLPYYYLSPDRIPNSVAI
The assay is described as follows: pull-down; GST pull-downs combined with BMMC lysates containing endogenous levels of the proteins; immunoblot; only the target purified. (In general: In western blotting, separated proteins are transferred to a membrane and probed.)

The target in the next assay is T2, GST-ORMDL3 (UniProt Q9CPZ6).
T2 sequence: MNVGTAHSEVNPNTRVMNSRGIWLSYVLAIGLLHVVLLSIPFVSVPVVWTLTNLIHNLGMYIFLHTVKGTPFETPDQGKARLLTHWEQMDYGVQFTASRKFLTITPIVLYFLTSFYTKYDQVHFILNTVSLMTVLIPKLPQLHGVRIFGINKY
The assay is described as above.

The target of assay [2] is T3, TS-5-LO (Twin-Strep-tagged 5-lipoxygenase) in BMMCL (UniProt P48999).
T3 sequence: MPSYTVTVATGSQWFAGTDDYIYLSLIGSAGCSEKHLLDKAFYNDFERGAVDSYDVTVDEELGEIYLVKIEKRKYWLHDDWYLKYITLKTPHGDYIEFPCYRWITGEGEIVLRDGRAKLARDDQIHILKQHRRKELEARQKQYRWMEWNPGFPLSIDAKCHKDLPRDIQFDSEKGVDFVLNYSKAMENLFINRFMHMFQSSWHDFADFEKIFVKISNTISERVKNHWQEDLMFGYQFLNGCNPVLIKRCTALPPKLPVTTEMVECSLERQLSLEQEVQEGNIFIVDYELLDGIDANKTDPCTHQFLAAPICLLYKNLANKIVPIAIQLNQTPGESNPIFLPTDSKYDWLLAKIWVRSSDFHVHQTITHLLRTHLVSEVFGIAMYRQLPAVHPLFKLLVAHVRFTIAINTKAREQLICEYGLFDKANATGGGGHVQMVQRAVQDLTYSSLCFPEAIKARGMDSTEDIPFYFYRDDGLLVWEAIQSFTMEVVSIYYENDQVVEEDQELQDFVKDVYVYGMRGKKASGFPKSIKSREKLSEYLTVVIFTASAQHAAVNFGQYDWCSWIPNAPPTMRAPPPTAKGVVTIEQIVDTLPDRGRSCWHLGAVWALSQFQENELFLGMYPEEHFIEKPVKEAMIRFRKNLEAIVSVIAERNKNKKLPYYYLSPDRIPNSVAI
The assay is described as follows: pull-down; Strep-Tactin Superflow resin holds the TS-tagged protein from postnuclear lysates (1% CHAPS, 150 uM glutathione, pH 6.8, 4°C) of BMMCL, resting or antigen (TNP-BSA)-activated; immunoblot.

Assay [3] deals with T4, TS-5-LO (Twin-Strep-tagged 5-lipoxygenase) in HEK293FT cells (UniProt P48999).
T4 sequence: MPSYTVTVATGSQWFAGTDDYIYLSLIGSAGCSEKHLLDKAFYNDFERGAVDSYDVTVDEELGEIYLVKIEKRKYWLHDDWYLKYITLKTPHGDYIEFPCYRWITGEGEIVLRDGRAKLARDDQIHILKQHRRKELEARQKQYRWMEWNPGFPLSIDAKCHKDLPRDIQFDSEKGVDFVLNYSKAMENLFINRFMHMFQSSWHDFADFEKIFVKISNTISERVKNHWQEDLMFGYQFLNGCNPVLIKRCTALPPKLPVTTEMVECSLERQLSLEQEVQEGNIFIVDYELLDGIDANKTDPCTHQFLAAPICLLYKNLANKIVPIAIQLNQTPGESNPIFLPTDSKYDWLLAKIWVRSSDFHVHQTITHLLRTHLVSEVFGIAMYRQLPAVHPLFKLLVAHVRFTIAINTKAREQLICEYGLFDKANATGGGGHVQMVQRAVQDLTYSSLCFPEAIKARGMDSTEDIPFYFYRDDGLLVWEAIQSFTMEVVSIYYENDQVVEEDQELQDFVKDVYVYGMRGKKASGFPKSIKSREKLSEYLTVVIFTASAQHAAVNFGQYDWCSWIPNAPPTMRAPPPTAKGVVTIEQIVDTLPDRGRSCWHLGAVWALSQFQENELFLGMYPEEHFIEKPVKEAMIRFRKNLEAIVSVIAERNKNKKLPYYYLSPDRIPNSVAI
The assay is described as follows: pull-down; Strep-Tactin Superflow resin holds the TS-tagged protein from postnuclear lysates (1% CHAPS, 50 mM Hepes-KOH, 150 mM KOAc, pH 6.8, 4°C) of transduced HEK293FT cells, resting or activated with thapsigargin (0, 3, 15, 25 min); immunoblot.

Assay [4] concerns the target T1, GST-5-LO. The experiment in a line: pull-down; GST-tagged protein from bacterial lysate on glutathione agarose beads, washed; in vitro-translated 35S-methionine-labeled protein added, 1 h at 4°C, Hepes-KOH buffer pH 6.8 with 1% CHAPS and 5 mM DTT; autoradiography; only the target purified.
The target in assay [5] is T5, ORMDL3 Twin-Strep tag (TS) (UniProt Q9CPZ6).
T5 sequence: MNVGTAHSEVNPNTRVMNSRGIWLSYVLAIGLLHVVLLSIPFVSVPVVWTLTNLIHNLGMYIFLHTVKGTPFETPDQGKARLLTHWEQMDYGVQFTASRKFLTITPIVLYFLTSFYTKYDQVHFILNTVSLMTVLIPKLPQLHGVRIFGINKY
The experiment in a line: pull-down; ORMDL3 Twin-Strep tag as bait; immunoblot with SPTLC2 antibody ab23696; cells not given.

B1: SPTLC1, endogenous in mouse mast cells (protein, UniProt O35704 1-473)
chain: MATVAEQWVLVEMVQALYEAPAYHLILEGILILWIIRLVFSKTYKLQERSDLTAKEKEELIEEWQPEPLVPPVSKNHPALNYNIVSGPPTHNIVVNGKECVNFASFNFLGLLANPRVKATAFSSLKKYGVGTCGPRGFYGTFDVHLDLEERLAKFMKTEEAIIYSYGFSTIASAIPAYSKRGDIIFVDSAACFAIQKGLQASRSDIKLFKHNDVADLERLLKEQEIEDQKNPRKARVTRRFIVVEGLYMNTGTICPLPELVKLKYKYKARIFLEESLSFGVLGEHGRGVTEHYGISIDDIDLISANMENALASVGGFCCGRSFVVDHQRLSGQGYCFSASLPPLLAAAAIEALNIMEENPDIFAVLKKKCQNIHKSLQGVSGLKVVGESLSPALHLQLEESTGSREKDVKLLQAIVDQCMDKGIALTQARYLDKEEKCLPPPSIRVVVTVEQTEEELQRAASTIREAAQAVLL
As for B1, the binding result (in the assay with GST-5-LO [1]; with GST-ORMDL3; in assay [2]) was “binds” each time.

B2: SPTLC2, long-chain 2 subunit of serine palmitoyltransferase, endogenous in HEK293FT (protein, UniProt O15270 1-562)
chain: MRPEPGGCCCRRTVRANGCVANGEVRNGYVRSSAAAAAAAAAGQIHHVTQNGGLYKRPFNEAFEETPMLVAVLTYVGYGVLTLFGYLRDFLRYWRIEKCHHATEREEQKDFVSLYQDFENFYTRNLYMRIRDNWNRPICSVPGARVDIMERQSHDYNWSFKYTGNIIKGVINMGSYNYLGFARNTGSCQEAAAKVLEEYGAGVCSTRQEIGNLDKHEELEELVARFLGVEAAMAYGMGFATNSMNIPALVGKGCLILSDELNHASLVLGARLSGATIRIFKHNNMQSLEKLLKDAIVYGQPRTRRPWKKILILVEGIYSMEGSIVRLPEVIALKKKYKAYLYLDEAHSIGALGPTGRGVVEYFGLDPEDVDVMMGTFTKSFGASGGYIGGKKELIDYLRTHSHSAVYATSLSPPVVEQIITSMKCIMGQDGTSLGKECVQQLAENTRYFRRRLKEMGFIIYGNEDSPVVPLMLYMPAKIGAFGREMLKRNIGVVVVGFPATPIIESRARFCLSAAHTKEILDTALKEIDEVGDLLQLKYSRHRLVPLLDRPFDETTYEETED
On to B2, for which the binding entry in assay [3] is listed as “binds”.

B3: SPTLC1, long-chain 1 subunit of serine palmitoyltransferase, endogenous in HEK293FT (protein, UniProt O15269 1-473)
chain: MATATEQWVLVEMVQALYEAPAYHLILEGILILWIIRLLFSKTYKLQERSDLTVKEKEELIEEWQPEPLVPPVPKDHPALNYNIVSGPPSHKTVVNGKECINFASFNFLGLLDNPRVKAAALASLKKYGVGTCGPRGFYGTFDVHLDLEDRLAKFMKTEEAIIYSYGFATIASAIPAYSKRGDIVFVDRAACFAIQKGLQASRSDIKLFKHNDMADLERLLKEQEIEDQKNPRKARVTRRFIVVEGLYMNTGTICPLPELVKLKYKYKARIFLEESLSFGVLGEHGRGVTEHYGINIDDIDLISANMENALASIGGFCCGRSFVIDHQRLSGQGYCFSASLPPLLAAAAIEALNIMEENPGIFAVLKEKCGQIHKALQGISGLKVVGESLSPAFHLQLEESTGSREQDVRLLQEIVDQCMNRSIALTQARYLEKEEKCLPPPSIRVVVTVEQTEEELERAASTIKEVAQAVLL
Regarding B3, the binding entry in assay [3] is recorded as “binds”.

B4: ORMDL3, endogenous in BMMC (protein, UniProt Q9CPZ6 1-153)
chain: MNVGTAHSEVNPNTRVMNSRGIWLSYVLAIGLLHVVLLSIPFVSVPVVWTLTNLIHNLGMYIFLHTVKGTPFETPDQGKARLLTHWEQMDYGVQFTASRKFLTITPIVLYFLTSFYTKYDQVHFILNTVSLMTVLIPKLPQLHGVRIFGINKY
For B4, in the assay with GST-5-LO [1], the binding entry was “binds”.

B5: FLAG-ORMDL3 (protein, UniProt Q9CPZ6 1-153)
chain: MNVGTAHSEVNPNTRVMNSRGIWLSYVLAIGLLHVVLLSIPFVSVPVVWTLTNLIHNLGMYIFLHTVKGTPFETPDQGKARLLTHWEQMDYGVQFTASRKFLTITPIVLYFLTSFYTKYDQVHFILNTVSLMTVLIPKLPQLHGVRIFGINKY
With B5, in assay [3], the binding result was “binds”.

B6: ^35S-ORMDL3 (protein, UniProt Q9CPZ6 1-153)
chain: MNVGTAHSEVNPNTRVMNSRGIWLSYVLAIGLLHVVLLSIPFVSVPVVWTLTNLIHNLGMYIFLHTVKGTPFETPDQGKARLLTHWEQMDYGVQFTASRKFLTITPIVLYFLTSFYTKYDQVHFILNTVSLMTVLIPKLPQLHGVRIFGINKY
modifications: 35S-labeled L-methionine
B6: the binding result with GST-5-LO [4] is “binds”.

B7: HA-ORMDL3 (protein, UniProt Q9CPZ6 1-153)
chain: MNVGTAHSEVNPNTRVMNSRGIWLSYVLAIGLLHVVLLSIPFVSVPVVWTLTNLIHNLGMYIFLHTVKGTPFETPDQGKARLLTHWEQMDYGVQFTASRKFLTITPIVLYFLTSFYTKYDQVHFILNTVSLMTVLIPKLPQLHGVRIFGINKY
For the molecule B7, in assay [3], the binding entry is recorded as “binds”.

B8: SPTLC2, endogenous in BMMCL (protein, UniProt P97363 1-560)
chain: MRPEPGGCCCRRPMRANGCVKNGEVRNGYLRSSTATVAAAGQIHHVTENGGLYKRPFNEAFEETPMLVAVLTYVGYGVLTLFGYLRDFLRHWRIEKCHHATEREEQKDFVSLYQDFENFYTRNLYMRIRDNWNRPICSVPGAKVDIMERKSHDYNWSFKYTGNIIKGVINMGSYNYLGFARNTGSCQEAAAEVLKEYGAGVCSTRQEIGNLDKHEELEKLVARFLGVEAAMTYGMGFATNSMNIPALVGKGCLILSDELNHASLVLGARLSGATIRIFKHNNMQSLEKLLKDAIVYGQPRTRRPWKKILILVEGIYSMEGSIVRLPEVIALKKKYKAYLYLDEAHSIGALGPSGRGVVDYFGLDPEDVDVMMGTFTKSFGASGGYIGGKKELIDYLRTHSHSAVYATSMSPPVMEQIITSMKCIMGQDGTSLGKECIQQLAENTRYFRRRLKEMGFIIYGNEDSPVVPLMLYMPAKIGAFGREMLKRNIGVVVVGFPATPIIESRARFCLSAAHTKEILDTALKEIDEVGDLLQLKYSRHRLVPLLDRPFDETTYEETED
For the molecule B8, in assay [2], the binding result is recorded as “binds”.

B9: SPTLC2 (lower, membrane-bound band), cells not stated (protein, UniProt P97363 1-560)
chain: MRPEPGGCCCRRPMRANGCVKNGEVRNGYLRSSTATVAAAGQIHHVTENGGLYKRPFNEAFEETPMLVAVLTYVGYGVLTLFGYLRDFLRHWRIEKCHHATEREEQKDFVSLYQDFENFYTRNLYMRIRDNWNRPICSVPGAKVDIMERKSHDYNWSFKYTGNIIKGVINMGSYNYLGFARNTGSCQEAAAEVLKEYGAGVCSTRQEIGNLDKHEELEKLVARFLGVEAAMTYGMGFATNSMNIPALVGKGCLILSDELNHASLVLGARLSGATIRIFKHNNMQSLEKLLKDAIVYGQPRTRRPWKKILILVEGIYSMEGSIVRLPEVIALKKKYKAYLYLDEAHSIGALGPSGRGVVDYFGLDPEDVDVMMGTFTKSFGASGGYIGGKKELIDYLRTHSHSAVYATSMSPPVMEQIITSMKCIMGQDGTSLGKECIQQLAENTRYFRRRLKEMGFIIYGNEDSPVVPLMLYMPAKIGAFGREMLKRNIGVVVVGFPATPIIESRARFCLSAAHTKEILDTALKEIDEVGDLLQLKYSRHRLVPLLDRPFDETTYEETED
Regarding B9, the binding entry in assay [5] was “binds”.
